{"source": "PubChem BioAssay AID686978", "about": "(National Center for Advancing Translational Sciences (NCATS), 2013)", "note": "Among all 420,000 compounds or so, about 64,000 (15%) were called active. Inconclusive means that the source gave no clear call. Such entries were picked first, then a sample of the others. Calls follow the shape of the dose curve; as a rule, active = well fitted inhibition curve with a large enough effect; inconclusive = small, poorly fitted or top-dose-only effect; inactive = flat fitted curve, though single readings scatter. Potencies of inconclusive entries are left out as doubtful fits. % is scaled to controls: 0 for no effect and ±100 for the full control effect; potency is read from the fitted curve at half-maximal effect; tags tell the direction and shape of the fitted curve."}
{"assay": "qHTS for Inhibitors of human tyrosyl-DNA phosphodiesterase 1 (TDP1): qHTS in cells in absence of CPT; also: nearly all actives have a fitted effect of over 55% in size", "settings": "DT40 Tdp1-/- hTDP1 cells, no CPT, ATP luminescence, 48 h; activity change, negative = growth inhibition: at 46.2 µM (top of the series) unless noted", "method_in_brief": "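Seeded 400 DT40-hTDP1 cells/well (vehicle DMSO, no 20 nM CPT); pinned compounds; ≥48 hr at 37 °C; CellTiter-Glo luminescence as viability measure.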"}
{"smiles": "O=C(Cn1cnc2c(nnn2-c2ccc(F)cc2)c1=O)N1CCCc2ccccc21", "Potency": "inconclusive [inhibitor, partial curve, poor fit]"}
{"smiles": "Nc1nc(-c2sc3nc4c(cc3c2N)CCCC4)nc(N2CCOCC2)n1", "Potency": "inconclusive [inhibitor, single point]"}
{"smiles": "CC(C)C[C@H]1CN(CCCC[C@H]2CNC(=O)C(=O)N2Cc2ccccc2)C(=O)C(=O)N1Cc1ccccc1", "Potency": "inactive"}
{"smiles": "COc1ccc(NC(=O)CN2C(=O)COc3ccc(C)cc32)cc1", "Potency": "inactive"}
{"smiles": "CC(=O)c1c(C)nc2sc3c(=N)n(N)cnc3c2c1-c1ccc(Cl)cc1", "Potency": "inconclusive [inhibitor, partial curve, poor fit]"}
{"smiles": "CC(C)NC(=O)Nc1cccc2c1O[C@H](CN(C)C(=O)NC(C)C)[C@@H](C)CN([C@H](C)CO)C2=O", "Potency": "inactive"}
{"smiles": "CC(C)(C)SC(=O)CC1NS(=O)(=O)OCC1NC(=O)OCC(Cl)(Cl)Cl", "note": "(stereo not drawn)", "Potency": "inconclusive [inhibitor, single point]"}
{"smiles": "COc1ccc(NC(=O)CSC2=Nc3ccccc3N=C(c3ccc(F)cc3)C2)cc1OC", "Potency": "inconclusive [inhibitor, partial curve, poor fit]"}
{"smiles": "Cc1ccc(-c2nnc(Oc3cccc(C)c3)c3ccccc23)cc1", "Potency": "inconclusive [inhibitor, single point]"}
{"smiles": "O=C(NCc1ccc(F)cc1)c1cc2c(cc1Cl)N1CCCCCC1=NS2(=O)=O", "Potency": "inactive"}
{"smiles": "CCOC(=O)c1c(NC(=O)C2CCCN2S(=O)(=O)c2cccc3nsnc23)sc(C)c1C", "note": "(stereo not drawn)", "Potency": "inconclusive [inhibitor, full curve]"}
{"smiles": "COc1ccc(Sc2ncnc3onc(C)c23)cc1", "Potency": "inconclusive [inhibitor, single point]"}
{"smiles": "S=C(NCCc1ccccc1)N1CCN(C(c2ccccc2)c2ccccc2)CC1", "Potency": "active: 16.4 µM"}
{"smiles": "CN1CCC(C(=O)C(=O)O)C1=O", "note": "(stereo not drawn)", "Potency": "inactive"}
{"smiles": "Cc1cc(C)n2nc(SCc3cc(=O)oc4ccc5ccccc5c34)nc2n1", "activity change, negative = growth inhibition": "inconclusive: -32.4% [inhibitor]"}
{"smiles": "Cc1ccc(C)c2c1cc(C)c1nnc(SCC(=O)Nc3cccc(C(=O)O)c3)n12", "Potency": "inactive"}
{"smiles": "C[C@]12CCC(O)CC1CCC1C2CC[C@]2(C)C(c3cc(C(F)(F)F)n[nH]3)CCC12", "note": "(stereo partly drawn)", "Potency": "active: 13 µM"}
{"smiles": "O=C1CN(C(=O)NCC(=O)N2CCCC2)c2ccccc2N1", "Potency": "inactive"}
{"smiles": "C=CCN(Cc1ccc(Br)s1)C(=O)c1ccc(OCc2c(C)noc2C)cc1", "Potency": "active: 16.4 µM"}
{"smiles": "Cn1nc(C(=O)OCC(=O)c2ccc(Br)cc2)c2ccccc2c1=O", "Potency": "inactive"}
{"smiles": "O=C1C=C(c2ccccc2Oc2ccccc2)C[C@@H](c2ccc3c(c2)OCO3)C1", "Potency": "inconclusive [inhibitor, single point]"}
{"smiles": "Cc1ccc2c(c1)c1c(c(=O)n(-c3ccccc3C)c(=O)n1CC(=O)c1ccc(Cl)cc1)n2C", "Potency": "inconclusive [inhibitor, full curve, poor fit]"}
{"smiles": "COc1ccc(C(=O)NCCCCNC(=O)c2ccc(OC)c(OC)c2)cc1OC", "Potency": "inactive"}
{"smiles": "CCCCOc1ccc(C(=O)Nc2ccc(N3CCN(C(C)=O)CC3)cc2)cc1", "activity change, negative = growth inhibition": "inconclusive: -37.9% [inhibitor]"}
{"smiles": "Cc1c(C(=O)N2CCN(S(=O)(=O)c3ccc(F)cc3)CC2)oc2ccccc12", "Potency": "inconclusive [inhibitor, single point]"}
{"smiles": "C[C@H](NC(=O)c1ccco1)C(=O)NCc1cccs1", "Potency": "inactive"}
{"smiles": "C=CCn1c(=O)/c(=C\\c2ccccn2)s/c1=C(/C#N)C(=O)NCC1CCCO1", "note": "(stereo not drawn)", "Potency": "inactive"}
{"smiles": "COc1ccccc1CNC(=O)[C@H](C)NC(=O)C1CCN(C(=O)[C@H](CCSC)NC(=O)OC(C)(C)C)CC1", "Potency": "inactive"}
{"smiles": "COCCCn1c(=O)/c(=C\\c2cccc(OC)c2OC)s/c1=C(/C#N)C(=O)Nc1ccc(C(=O)O)cc1", "Potency": "inconclusive [inhibitor, partial curve, poor fit]"}
{"smiles": "Cc1cc(=O)oc2cc(OCC(=O)N3CC[C@@]4(O)CCCC[C@H]4C3)ccc12", "Potency": "inactive"}
{"smiles": "CCc1nc2ccc(C(=O)NCCN3CCNC3=O)cn2c1N(C)CCC(C)C", "Potency": "inconclusive [inhibitor, single point]"}
{"smiles": "CN(C)c1ccc(NC(=O)Cn2nnc3sc4c(c3c2=O)CCC(C(C)(C)C)C4)cc1", "note": "(stereo not drawn)", "Potency": "inconclusive [inhibitor, single point]"}
{"smiles": "CCCOc1ccc2[nH]cc(C(=O)O)c(=O)c2c1", "Potency": "inconclusive [inhibitor, partial curve]"}
{"smiles": "COc1ccccc1C(=O)NCCC(=O)N(C)CC(=O)Nc1ccc(N2CCOCC2)cc1", "Potency": "inactive"}
{"smiles": "CC1CCN(S(=O)(=O)c2cccc(-c3csc(-c4cccnc4)n3)c2)CC1", "Potency": "inconclusive [inhibitor, single point]"}
{"smiles": "O=[N+]([O-])c1ccc(N2CCC(=NOCc3ccc(Cl)cc3)CC2)cc1", "Potency": "active: 10.3 µM"}
{"smiles": "COc1cc2c(=O)n(CCCC(=O)NCC3CCCO3)c(=O)n(CC(=O)c3ccc(F)cc3)c2cc1OC", "note": "(stereo not drawn)", "Potency": "inactive"}
{"smiles": "CCOc1ccc(CNC(=O)C(CC)n2nc(C)n3c(cc4occc43)c2=O)cc1OC", "note": "(stereo not drawn)", "Potency": "inactive"}
{"smiles": "O=S(=O)(c1ccc(Cl)cc1)c1nnn2c1nc(NC1CCCCC1)c1sccc12", "Potency": "inconclusive [inhibitor, single point]"}
{"smiles": "NC(=S)c1ccc(OCCCc2ccccc2)cc1", "Potency": "inconclusive [inhibitor, partial curve]"}
{"smiles": "COc1cccc(N2CCN(C(=O)c3ccc(=O)oc3)CC2C)c1", "note": "(stereo not drawn)", "Potency": "inactive"}
{"smiles": "O=S(=O)(c1ccc2nc(Nc3ccccc3)ccc2c1)N1CCCCC1", "Potency": "active: 16.4 µM"}
{"smiles": "O=C1COc2ccc(-c3csc(=Nc4ccc(OC(F)F)cc4)n3CC3CCCO3)cc2N1", "note": "(stereo not drawn)", "Potency": "active: 16.4 µM"}
{"smiles": "COc1ccc(CCNC(=O)CSc2nc3scc(-c4ccccc4)c3c(=O)[nH]2)cc1", "Potency": "inconclusive [inhibitor, single point]"}
{"smiles": "CCOc1ccc(NC(=O)COC(=O)c2c(OC)cccc2OC)cc1", "Potency": "inconclusive [inhibitor, single point]"}
{"smiles": "Cc1nn(-c2ccccc2)c(Cl)c1CN(C(=O)CCl)c1cccc2ccccc12", "Potency": "active: 6.51 µM"}
{"smiles": "CN1CCCC1CCNc1ccc2sc3ccccc3c(=O)c2c1", "note": "(stereo not drawn)", "Potency": "inconclusive [inhibitor, single point]"}
{"smiles": "COc1cc(NC(=O)CSc2nnc3c4ccccc4n(C)c3n2)cc(OC)c1OC", "Potency": "inconclusive [inhibitor, single point]"}
{"smiles": "COc1ccccc1-c1nnc(SCC(=O)NCc2c(C)c(Cl)cc(C(C)C)c2O)o1", "Potency": "inconclusive [inhibitor, single point]"}
{"smiles": "NS(=O)(=O)c1cccc(NC(=O)COC(=O)/C(=C/c2cccs2)c2cccs2)c1", "Potency": "active: 23.1 µM"}
{"smiles": "Cc1cnc(CNc2ncnc3ccc(-c4cccc(NS(C)(=O)=O)c4)cc23)cn1", "Potency": "inactive"}
{"smiles": "CN(C)c1cccc(C(=O)Nc2nc3ccc(S(=O)(=O)N4CCCC4)cc3s2)c1", "Potency": "active: 8.2 µM"}
{"smiles": "COC(=O)Nc1nc(-c2cc(Cl)ccc2Cl)cs1", "Potency": "inactive"}
{"smiles": "O=C(Nc1ccc2c(c1)OCCO2)C1CCCN(S(=O)(=O)Cc2ccccc2)C1", "note": "(stereo not drawn)", "Potency": "inconclusive [inhibitor, partial curve, poor fit]"}
{"smiles": "COc1ccc(N2CCc3c(C)nc4c(OC)cccc4c32)cc1", "Potency": "active: 2.91 µM"}
{"smiles": "O=C1c2ccccc2C(O)N1Cc1ccccc1", "note": "(stereo not drawn)", "Potency": "inactive"}
{"smiles": "C#CCOCCOCCOCCNc1nc(N2CCN(C(=O)[C@H](CCC(=O)O)n3cc(C(N)Cc4ccc(O)cc4)nn3)CC2)nc(N2CCN(C(=O)[C@H](CCC(=O)O)n3cc(C(N)Cc4ccc(O)cc4)nn3)CC2)n1", "note": "(stereo partly drawn)", "Potency": "inactive"}
{"smiles": "Cc1cc(-c2ccc3c(c2)COc2c4ccccc4nn2-3)on1", "Potency": "inconclusive [inhibitor, single point]"}
{"smiles": "CC(C)(C)OC(=O)CNC(=O)c1[nH]cnc1C(=O)NC1CCN(C(=O)OC(C)(C)C)CC1", "activity change, negative = growth inhibition": "inconclusive: -33.5% [inhibitor]"}
{"smiles": "O=c1ccc2cc(S(=O)(=O)Nc3ccc(F)cc3)ccc2o1", "Potency": "inconclusive [inhibitor, partial curve]"}
{"smiles": "CCOc1ccc(N(C(C)C(=O)NC2CCCCCC2)S(C)(=O)=O)cc1", "note": "(stereo not drawn)", "Potency": "inconclusive [inhibitor, full curve]"}
{"smiles": "CCOc1ccc(N/N=C(/C#N)C(N)=O)cc1", "Potency": "inactive"}
{"smiles": "CSc1nc(C(=O)N2CCCC(N3CCN(c4ccccc4C)CC3)C2)cs1", "note": "(stereo not drawn)", "Potency": "active: 18.4 µM"}
{"smiles": "Cc1cccc(Nc2nc(N)nc(N)c2N=O)c1", "Potency": "active: 20.6 µM"}
{"smiles": "O=C(CC1C(=O)NC2CCCCC2N1C(=O)c1ccc([N+](=O)[O-])cc1)Nc1ccccc1", "note": "(stereo not drawn)", "Potency": "active: 16.4 µM"}
{"smiles": "O=C(NNc1nc(-c2ccc(Br)cc2)cs1)c1ccco1", "Potency": "active: 16.4 µM"}
{"smiles": "CC(=O)Oc1ccc(/C(C)=N/N2CCN(Cc3ccc(C)cc3)CC2)cc1", "Potency": "inactive"}
{"smiles": "CN(c1ccccc1)c1cc(Br)nc(Br)c1", "Potency": "inconclusive [inhibitor, single point]"}
{"smiles": "Clc1ccc(SCCCCn2ccnc2)cc1", "Potency": "inconclusive [inhibitor, single point]"}
{"smiles": "COc1ccc(CN2CCn3ncc(C(=O)Nc4ccccc4)c3C2=O)cc1", "Potency": "inconclusive [inhibitor, partial curve]"}
{"smiles": "CC(c1ccccc1)n1c(-c2ccccc2)n[nH]c1=S", "note": "(stereo not drawn)", "Potency": "inactive"}
{"smiles": "Cc1ccc(C)c(S(=O)(=O)Nc2cc3c4c(c2)CC(=O)N4CCC3)c1", "Potency": "inconclusive [inhibitor, single point]"}
{"smiles": "CC(C)CN1CCC1(C)C(=O)Nc1ccc(OC(F)F)cc1", "note": "(stereo not drawn)", "Potency": "inactive"}
